Biological target: T1, human recombinant SGK1 (Homo sapiens, UniProt O00141)
T1 sequence (O00141 60-431): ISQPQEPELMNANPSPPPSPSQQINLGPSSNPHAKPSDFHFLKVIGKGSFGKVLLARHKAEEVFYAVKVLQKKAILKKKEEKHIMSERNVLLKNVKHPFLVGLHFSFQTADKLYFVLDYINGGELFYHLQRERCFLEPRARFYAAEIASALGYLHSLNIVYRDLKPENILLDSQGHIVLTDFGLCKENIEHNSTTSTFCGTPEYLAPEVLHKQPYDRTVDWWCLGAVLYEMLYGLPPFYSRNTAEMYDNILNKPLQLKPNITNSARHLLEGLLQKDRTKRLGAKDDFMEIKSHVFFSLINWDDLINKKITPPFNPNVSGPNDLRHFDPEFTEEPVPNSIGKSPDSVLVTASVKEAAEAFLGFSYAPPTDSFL
Experiment: SGK1 inhibition assay (radioactive, 33P-ATP, MRC Unit Dundee)
Assay type: biochemical
Settings: for SGK1 % Inhibition@10 µM: 10 µM compound

| SMILES | SGK1 % Inhibition@10 µM | IC50 (SGK1, read-out: IC50) |
| --- | --- | --- |
| CC(=O)c1ccc(Nc2ncnc3[nH]ccc23)cc1 [GMH1.12] | 74.3% |  |
| Clc1ccccc1Nc1ncnc2[nH]ccc12 [VNG1.6] | 48% | 5.2 µM |
| O=C1Nc2ccccc2/C1=N/c1ccc(F)cc1 [IGS4.18] | 1% |  |
| O=C1Nc2ccc(F)cc2/C1=N/N1CCCCC1 [LG1.31] | 5% |  |
